# Measured values as given in ChEMBL document CHEMBL4888484, “Replenishing the malaria drug discovery pipeline: Screening and hit evaluation of the MMV Hit Generation Library 1 (HGL1) against asexual blood stage Plasmodium falciparum ,using a nano luciferase reporter read-out” (2022).
# Out of some 150,000 compounds screened, about 540 (0.36%) showed an effect of 50% or more. This is one part of the list.
# Tested on: Plasmodium falciparum
# Assay: Primary screen in NF54 nanoGlo assay, in single point, at 2uM, 72h; a lower Z score goes with more inhibition
# Type: functional, Erythrocyte
# Conditions: timepoint 72 hour
Compound,% Inhibition,Z score
COc1c(F)cccc1S(=O)(=O)N[C@@H]1Cc2ccccc2[C@H]1N,-11%,2.18
C[C@@]1(O)CCN(CC2CC2)[C@@H](c2cccs2)[C@@H]1NC(=O)c1ccc(F)cc1,-13%,1.97
O=C(CN1CCN(c2ccc(C(F)(F)F)nn2)CC1)Nc1nncs1,1%,-0.11
CCn1c(=O)c2[nH]cc(-c3ccccc3)c2n2c(=O)[nH]nc12,0%,0.06
COc1ccc([C@H]2[C@H](C(=O)NC3CCCCCC3)CCC(=O)N2C)cc1,36%,-4.07
Oc1ncnc2nc3n(c12)CCCCC3,-6%,0.53
COc1ccc(CN2CC[C@H]3CN(C(C)=O)C[C@@]3(CO)C2)cc1C,-4%,0.64
Cc1nsc(NC(=O)c2cccs2)n1,-4%,0.55
Cn1ccc2c(-c3c[nH]c(=O)[nH]c3=O)ccnc21,-8%,0.98
COCC1(CNC(=O)C2CCCCC2)CCC1,2%,-0.32
COc1ccc(CN2C(=O)N[C@@H](CCC(=O)N3CCOCC3)C2=O)cc1,-5%,0.62
Cn1ncc(CN2C(=O)N[C@@](C)(C(C)(C)C)C2=O)c1C(F)(F)F,-13%,2.52
COc1cccc(N2CCN(C(=O)C3CC(=O)N(C4CCS(=O)(=O)C4)C3)CC2)c1 (stereo not drawn),-7%,1
COc1cccc(S(=O)(=O)N2CCCN(Cc3ccncc3)[C@H](c3ccccc3)CC(=O)NCC2)c1,92%,-7.9
O=C(CN1CCC(Cc2nc3ccccc3[nH]2)CC1)N1CCCCC1,1%,-0.09
Cc1cc(C)cc(NC(=O)c2cc3n(n2)C[C@@H](c2ccc4c(c2)OCO4)OC3)c1,-12%,1.36
c1nc(CN[C@H]2CCCC23CCCCC3)cs1,11%,-1.41
Cc1ccc(F)cc1NC(=O)c1cnc2c(C)cccn2c1=O,1%,-0.15
CN(C)[C@H]1CN(C(=O)c2cccc(-c3ccc(-c4ccno4)cc3)c2)C[C@@H]1O,-7%,0.61
c1ccc2c(CNC3CCCCC3)cccc2c1,3%,-0.37
CCCCN(C)C[C@@H](C)NC(=O)c1cccc(Cl)c1F,-5%,0.65
Cn1nc(CC2CCN(Cc3ccncc3)CC2)n(-c2ccccc2)c1=O,-13%,1.77
O=S(=O)(C1CCCC1)N1CCCC1,2%,-0.29
O=c1sc2ccccc2n1Cc1cccc2ccccc12,0%,0.05
